Results as given in the supplement of paper PMC11125491.
± gives the standard deviation of the averaged measurements. Growth of baker's yeast expressing single-residue variants of Pneumocystis jirovecii dihydrofolate reductase in 8.8 or 44 µM methotrexate (about 75% and 90% inhibition of the wild type). Selection coefficient per generation; 0 = like wild type, above 0 = less sensitive, below 0 = more sensitive or loss of function. No active / inactive call per row; the paper calls resistant above 0.220 (8.8 µM) or 0.243 (44 µM) together with a significance test. At 44 µM about 15% of codons end with one read or none, so the lowest values are floors (replicate rank correlation 0.74; 0.94 at 8.8 µM).

B1: UniProt A0EPZ9; numbered along this chain (parent)
chain: MDWQKSLTLIVALTLSRGIGLKNDLPWKLKSDMMFFSRVTSGLLVTRSTGQMNVVLMGRKTWESLPAHSRPLKNRINVVISRQEVLDLGGGAYHARSLDDALALLSQIYDSTSKIQLNRVFVIGGGELCKAAMEHSRLNRIIATVIHNEVDCDVFFPIDFRSSQSCLPWRKQDHSVLEAWVGSKVPQGKINENGFIYEFEMWIRDI

Variants of: B1
Experiment: selection coefficient against synonymous wild-type codons (log2 per generation); higher = faster growth than wild type
Conditions: with Saccharomyces cerevisiae carrying the variant on a plasmid
Method: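 Pooled growth of yeast carrying single-residue variants of P. jirovecii dihydrofolate reductase (own DFR1 gene intact), two passages at 30 °C, three cultures, sequenced before and after. Codons with under 15 starting reads are left out; codons of one change are averaged.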

Variant | selection coefficient against synonymous wild-type codons (log2) (methotrexate 8.8 µM) | selection coefficient against synonymous wild-type codons (log2) (methotrexate 44 µM)
G91M | 0.102 ± 0.03 | 0.154 ± 0.065
G91N | 0.0391 ± 0.064 | 0.114 ± 0.13
G91R | -0.0267 ± 0.027 | 0.105 ± 0.34
G91K | 0.0892 ± 0.04 | 0.175 ± 0.026
G91L | 0.0798 ± 0.023 | 0.144 ± 0.08
G91T | -0.0614 ± 0.07 | -0.11 ± 0.12
G91V | -0.0699 ± 0.019 | -0.0807 ± 0.13
G91I | -0.153 ± 0.034 | 0.0107 ± 0.073
G91W | -0.319 ± 0.07 | -0.219 ± 0.084
G91F | -0.143 ± 0.092 | -0.117 ± 0.19
G91Y | -0.0983 ± 0.039 | -0.113 ± 0.15
G91H | 0.0784 ± 0.015 | 0.132 ± 0.079
G91P | -0.409 ± 0.095 | -0.176 ± 0.096
G91C | -0.0303 ± 0.011 | 0.0315 ± 0.053
L86E | 0.095 ± 0.054 | 0.035 ± 0.1
L86T | -0.00557 ± 0.04 | -0.0809 ± 0.12
L86K | 0.082 ± 0.035 | 0.0316 ± 0.065
L86M | -0.0915 ± 0.032 | -0.131 ± 0.24
L86I | -0.191 ± 0.021 | -0.239 ± 0.11
L86C | -0.172 ± 0.016 | -0.145 ± 0.15
L86Q | -0.0315 ± 0.012 | -0.305 ± 0.12
L86V | -0.138 ± 0.045 | -0.183 ± 0.11
L86S | 0.0164 ± 0.041 | -0.0568 ± 0.15
L86G | 0.0492 ± 0.02 | -0.106 ± 0.061

Variant | selection coefficient against synonymous wild-type codons (log2) (methotrexate 8.8 µM) | selection coefficient against synonymous wild-type codons (log2) (methotrexate 44 µM)
L86W | -0.495 ± 0.072 | -0.223 ± 0.26
L86N | 0.0183 ± 0.021 | -0.0983 ± 0.14
L86H | -0.0258 ± 0.048 | -0.0862 ± 0.046
L86A | 0.00562 ± 0.039 | -0.0917 ± 0.071
L86Y | -0.245 ± 0.045 | -0.296 ± 0.045
L86D | 0.0773 ± 0.069 | 0.0453 ± 0.16
L86R | -0.03 ± 0.035 | 0.0415 ± 0.42
L86P | 0.0299 ± 0.056 | 0.0196 ± 0.13
L86F | -0.233 ± 0.03 | -0.0781 ± 0.1
A92I | -0.61 ± 0.059 | -0.381 ± 0.032
A92D | -0.255 ± 0.092 | 0.0482 ± 0.18
A92F | -0.5 ± 0.072 | -0.327 ± 0.094
A92M | -0.566 ± 0.12 | -0.287 ± 0.019
A92E | -0.182 ± 0.036 | -0.327 ± 0.12
A92H | -0.572 ± 0.15 | -0.197 ± 0.061
A92C | -0.176 ± 0.06 | -0.199 ± 0.16
A92G | -0.4 ± 0.1 | -0.237 ± 0.11
A92K | -0.539 ± 0.1 | -0.106 ± 0.062
A92N | -0.419 ± 0.03 | -0.0746 ± 0.065
A92L | -0.728 ± 0.091 | -0.281 ± 0.087
I80E | -0.662 ± 0.02 | -0.16 ± 0.06
I80H | -0.508 ± 0.058 | -0.00728 ± 0.022
I80K | -0.633 ± 0.057 | -0.174 ± 0.051
I80Y | -0.635 ± 0.041 | -0.132 ± 0.08

Variant | selection coefficient against synonymous wild-type codons (log2) (methotrexate 8.8 µM) | selection coefficient against synonymous wild-type codons (log2) (methotrexate 44 µM)
I80F | -0.703 ± 0.031 | -0.2 ± 0.057
I80Q | -0.71 ± 0.06 | -0.207 ± 0.027
I80L | -0.148 ± 0.049 | -0.1 ± 0.12
I80R | -0.674 ± 0.067 | -0.186 ± 0.059
I80G | -0.789 ± 0.075 | -0.285 ± 0.07
I80S | -0.576 ± 0.095 | -0.122 ± 0.1
I80M | -0.478 ± 0.055 | -0.218 ± 0.15
I80W | -0.559 ± 0.12 | -0.143 ± 0.085
I80D | -0.708 ± 0.057 | -0.205 ± 0.026
I80V | -0.108 ± 0.024 | -0.112 ± 0.093
I80N | -0.588 ± 0.026 | -0.0862 ± 0.096
I80T | -0.672 ± 0.07 | -0.169 ± 0.071
S81A | -0.259 ± 0.11 | -0.23 ± 0.084
S81E | -0.172 ± 0.057 | 0.179 ± 0.084
S81M | -0.766 ± 0.055 | -0.22 ± 0.085
S81F | -0.634 ± 0.11 | -0.262 ± 0.05
S81V | -0.697 ± 0.14 | -0.341 ± 0.057
S81N | -0.283 ± 0.074 | -0.208 ± 0.12
S81R | -0.682 ± 0.048 | -0.164 ± 0.093
S81Q | -0.661 ± 0.051 | -0.201 ± 0.059
S81H | -0.263 ± 0.082 | -0.129 ± 0.04
S81G | -0.584 ± 0.12 | -0.265 ± 0.07
S81T | -0.515 ± 0.071 | -0.212 ± 0.081
S81I | -0.618 ± 0.072 | -0.227 ± 0.057

Variant | selection coefficient against synonymous wild-type codons (log2) (methotrexate 8.8 µM) | selection coefficient against synonymous wild-type codons (log2) (methotrexate 44 µM)
S81C | -0.118 ± 0.06 | -0.119 ± 0.18
S81W | -0.632 ± 0.052 | -0.13 ± 0.032
S81L | -0.703 ± 0.09 | -0.163 ± 0.28
S81D | -0.107 ± 0.086 | 0.437 ± 0.023
S81K | -0.685 ± 0.068 | -0.225 ± 0.056
S81Y | -0.54 ± 0.079 | -0.151 ± 0.074
S81P | -0.549 ± 0.051 | -0.048 ± 0.061
G89P | 0.082 ± 0.024 | 0.12 ± 0.0037
G89C | -0.179 ± 0.048 | -0.109 ± 0.04
G89Y | -0.379 ± 0.0044 | -0.333 ± 0.048
G89S | -0.139 ± 0.032 | -0.18 ± 0.035
G89H | -0.144 ± 0.028 | -0.0435 ± 0.021
G89Q | -0.0658 ± 0.022 | 0.0143 ± 0.049
G89N | -0.0826 ± 0.017 | -0.0872 ± 0.068
G89D | -0.00991 ± 0.058 | -0.0127 ± 0.057
G89M | -0.436 ± 0.11 | -0.303 ± 0.054
G89W | -0.523 ± 0.032 | -0.204 ± 0.16
G89R | -0.178 ± 0.092 | -0.0933 ± 0.25
G89K | -0.0384 ± 0.044 | -0.0382 ± 0.084
G89V | -0.34 ± 0.053 | -0.197 ± 0.11
G89T | -0.187 ± 0.053 | -0.21 ± 0.13
G89E | 0.0552 ± 0.018 | 0.113 ± 0.089
G89F | -0.61 ± 0.24 | -0.264 ± 0.0049
G89A | -0.17 ± 0.025 | -0.186 ± 0.14

Variant | selection coefficient against synonymous wild-type codons (log2) (methotrexate 8.8 µM) | selection coefficient against synonymous wild-type codons (log2) (methotrexate 44 µM)
G89I | -0.638 ± 0.039 | -0.29 ± 0.061
G89L | -0.687 ± 0.1 | -0.242 ± 0.073
E84W | -0.577 ± 0.17 | -0.367 ± 0.048
E84V | -0.367 ± 0.1 | -0.258 ± 0.096
E84T | -0.211 ± 0.052 | -0.14 ± 0.12
E84Y | -0.497 ± 0.097 | -0.27 ± 0.024
E84P | -0.0584 ± 0.065 | -0.0563 ± 0.077
E84Q | -0.105 ± 0.005 | -0.0907 ± 0.18
E84M | -0.353 ± 0.026 | -0.281 ± 0.048
E84L | -0.422 ± 0.09 | -0.227 ± 0.11
E84G | -0.293 ± 0.044 | -0.206 ± 0.07
E84K | 0.0165 ± 0.01 | -0.00768 ± 0.15
E84S | -0.201 ± 0.06 | -0.125 ± 0.11
E84N | -0.169 ± 0.093 | 0.273 ± 0.53
E84I | -0.498 ± 0.14 | -0.183 ± 0.048
E84F | -0.624 ± 0.13 | -0.233 ± 0.042
E84D | -0.0452 ± 0.094 | -0.0129 ± 0.091
E84C | -0.388 ± 0.066 | -0.331 ± 0.056
E84R | -0.128 ± 0.068 | -0.0855 ± 0.15
E84A | -0.124 ± 0.045 | -0.083 ± 0.099
